Test results: patent publication US20050053973A1 (published 2005)

B1: IgE-1.5 (designed binder)
chain: CPANEFQCRNSSTCIPRRWLCDGDDDCGDGSDETGCSAPASEPPGSLCPANEFQCRNSSTCIPRRWLCDGDDDCGDGSDETGCSAPASEPPGSL
notes: On phage in the rank ELISA, purified protein in Biacore; tags and exact junction not readable; also called Walked Dimer 5
B2: IgE-1.23 (designed binder)
chain: CPAGQFRCENGRCLPPPWRCDGVNDCEDNSDEAGCGDSHILPFSTPGPSTCPANEFQCRNSSTCIPRRWLCDGDDDCGDGSDETGCSAPASEPPGSL
notes: On phage in the rank ELISA, purified protein in Biacore; tags not described; also called Walked Dimer 23
B3: IgE-1 (designed binder)
chain: CPANEFQCRNSSTCIPRRWLCDGDDDCGDGSDETGCSAPASEPPGSLSLQ
notes: LDL receptor class A domain monomer; tags not described; also called IgE-1 monomer; Monomer
B4: IgE-1.4 (designed binder)
chain: CPANEFQCRNSSTCIPRRWLCDGDDDCGDGSDETGCSAPASEPPGSLCAPNEFQCRDNNTCLPEDWRCDGEDDCADNSDEANCTTPGPTSLQ
notes: also called Walked Dimer 4
B5: IgE-1.1 (designed binder)
chain: CPANEFQCRNSSTCIPRRWLCDGDDDCGDGSDETGCSAPASEPPGSLCQPDQFRCSSGRCLSREWLCDGEDDCEDDSDETDCPTRTSLQ
notes: also called Walked Dimer 1
B6: IgE-1.2 (designed binder)
chain: CPANEFQCRNSSTCIPRRWLCDGDDDCGDGSDETGCSAPASEPPGSLCLPSQFPCDSGNCLPLTWLCDGVDDCGDNSDEEDCSAPASEPPGSLSLQ
notes: also called Walked Dimer 2
B7: IgE-1.31 (designed binder)
chain: CPANEFQCRNSSTCIPRRWLCDGDDDCGDGSDETGCSAPASEPPGSLCPANEFQCRNSSTCIPRRWLCDGEDDCGDGSDETGCSAPASEPPGSLSLQ
notes: also called Walked Dimer 31
B8: IgE-1.8 (designed binder)
chain: CPANEFQCRNSSTCIPRRWLCDGDDDCGDGSDETGCSAPASEPPGSLCAPSQFRCGNGRCIPRSWRCDGEDDCADDSDEENCSAPASEPPGSLSLQ
notes: also called Walked Dimer 8
B9: IgE-1.19 (designed binder)
chain: CPANEFQCRNSSTCIPRRWLCDGDDDCGDGSDETGCSAPASEPPGSLCPPDQFRCKNGRCIPRHLVCDGDDDCGDDSDEAGCQTRTSLQ
notes: also called Walked Dimer 19
B10: IgE-1.16 (designed binder)
chain: CPANEFQCRNSSTCIPRRWLCDGDDDCGDGSDETGCSAPASEPPGSLCRRAEFTCRNGSCLPVPWLCDAENDCPDGSDEPDCGSPARRSLQ
notes: also called Walked Dimer 16
B11: IgE-1.12 (designed binder)
chain: CPANEFQCRNSSTCIPRRWLCDGDDDCGDGSDETGCSAPASEPPGSLCPPGEFPCGNGRSVPLTWLCDGVDDCGDNSDETGCETTGRTSLQ
notes: also called Walked Dimer 12
B12: IgE-1.21 (designed binder)
chain: CPANEFQCRNSSTCIPRRWLCDGDDDCGDGSDETGCSAPASEPPGSLCEPGQFQCNNNDTCVSPPWLCDADRDCGRSDERPPHCATPELTSLQ
notes: also called Walked Dimer 21
B13: IgE-1.30 (designed binder)
chain: CPANEFQCRNSSTCIPRRWLCDGDDDCGDGSDETGCSAPASEPPGSLCAASQFRCNNNSRCLPPPLGCDGVDDCGDNSDEADCGRPGPGATSAPAASLQ
notes: also called Walked Dimer 30
B14: IgE-1.3 (designed binder)
chain: CPANEFQCRNSSTCIPRRWLCDGDDDCGDGSDETGCSAPASEPPGSLCRANQFPCDNGNCLPQPWRCDGDNDCVDGSDETSCEAPAHTSLQ
notes: also called Walked Dimer 3
B15: IgE-1.25 (designed binder)
chain: CPANEFQCRNSSTCIPRRWLCDGDDDCGDGSDETGCSAPASEPPGSLCLSSQFRCENGQCIPLTWGCDGDDDCQDGSDETNCPTRTSLQ
notes: also called Walked Dimer 25
B16: IgE-1.10 (designed binder)
chain: CPANEFQCRNSSTCIPRRWLCDGDDDCGDGSDETGCSAPASEPPGSLCQSSQFPCHDYEICLPATLLCDGVDDCLDGSDETNCAKPTSLQ
notes: also called Walked Dimer 10
B17: IgE-1.26 (designed binder)
chain: CPANEFQCRNSSTCIPRRWLCDGDDDCVDGSDETGCGSPVPTCPANEFQCRNSSTCIPRRWLCDGDDDCGDGSDETGCSAPASEPPGSLSLQ
notes: also called Walked Dimer 26
B18: IgE-1.6 (designed binder)
chain: CGSGQFPCGSGHCVPLNWVCDGVDDCGDDSDETDCKAHTCPANEFQCRNSSTCIPRRWLCDGDDDCGDGSDETGCSAPASEPPGSL
notes: also called Walked Dimer 6
B19: IgE-1.9 (designed binder)
chain: RVWRRLVGSCRPNQFTCKSSETCIPAHWRCDGDDDCGDGSDEADCETRTCPANEFQCRNSSTCIPRRWLCDGDDDCGDGSDETGCSAPASEPPGSL
notes: also called Walked Dimer 9

Biological target: T1, human IgE (human, UniProt P01854 1-428)
Experiment: Biacore, human IgE coupled to a CM5 chip by NHS/EDC, sample protein in flow

Binder	Kd [nM]
B1	220
B2	320
B3	1100

Biological target: T1, human IgE
Experiment: phage ELISA on six dilutions of immobilised human IgE (2.5 ng to 2.4 pg per well), αM13-HRP; rank of the signal among all clones averaged over the dilutions

T1 sequence (P01854 other isoform, or with tags, fused parts or gaps): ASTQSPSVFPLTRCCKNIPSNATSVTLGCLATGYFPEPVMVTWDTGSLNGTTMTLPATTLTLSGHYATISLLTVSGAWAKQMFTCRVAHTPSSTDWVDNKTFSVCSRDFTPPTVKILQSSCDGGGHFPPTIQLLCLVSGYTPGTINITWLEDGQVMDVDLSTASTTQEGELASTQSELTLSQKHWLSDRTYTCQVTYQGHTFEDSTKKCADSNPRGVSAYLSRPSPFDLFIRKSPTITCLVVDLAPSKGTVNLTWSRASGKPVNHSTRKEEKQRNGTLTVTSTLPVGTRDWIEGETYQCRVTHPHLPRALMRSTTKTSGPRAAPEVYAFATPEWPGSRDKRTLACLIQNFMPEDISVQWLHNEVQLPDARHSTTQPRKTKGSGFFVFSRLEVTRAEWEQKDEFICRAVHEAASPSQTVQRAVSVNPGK

Binder	Avg. Rank [rank]
B1	1
B4	4
B5	4
B6	4
B2	6
B7	6
B8	9
B9	9
B10	10
B11	11
B12	11
B13	11
B14	15
B15	15
B16	17
B17	18
B18	20
B3	22
B19	24
